The record followed here is the supplement of paper PMC8728848.

This test concerns the target Neu5Gc(b2-6)Gal(b1-4)GlcNAc. Kind of test: glycan array binding signal (z-score within array); higher = stronger binding. To be noted: glycan notation: IUPAC condensed, linker removed. The essentials: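 The Consortium for Functional Glycomics database supplied 3228 glycan arrays, of which those lacking an available protein sequence were dropped. The binding signal, a within-array Z-score, was averaged across arrays of the same protein sequence and across linkers. Negative scores can be read as non-binding.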

This is one part of the list.

B1: ACA (Amaranthus caudatus) (protein)
chain: MAGLPVIMCLKSNNNQKYLRYQSDNIQQYGLLQFSADKILDPLAQFEVEPSKTYDGLVHIKSRYTNKYLVRWSPNHYWITASANEPDENKSNWACTLFKPLYVEEGNMKKVRLLHVQLGHYTQNYTVGGSFVSYLFAESSQIDTGSKDVFHVIDWKSIFQFPKRYVTFKGNNGKYLGVITINQLPCLQFGYDNLNDPKVAHEMFVTSNGTICIKSTYMNKFWRLSTDDWILVDGNDPRETNEAAALFRSDVHDFNVISLLNMQKTWFIKRFTSGKPGFINCMNAATQNVDETAILEIIELGSNN
In the case of B1, the “glycan array binding signal (z-score)” value is -0.443.
